Results on 110 molecules are retold here after PubChem BioAssay AID488969 (Vanderbilt High Throughput Screening Facility, 2010).

Each structure is given as a SMILES string. Over roughly 110,000 compounds, “z-score” has its median near -0.1; the highest 2% begin near 2. The list shows a part of the results. Activity calls are given as the source filed them.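 The calls were made as follows: active = z-score in the third read window above 3 or below -3; inactive = the rest.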

This experiment has as its target Metabotropic glutamate receptor 8 (Rattus norvegicus) (UniProt P70579). As to the kind of experiment: rat mGluR8 modulators via GIRK flux, primary screen, cell-based, thallium flux, HTS (AID 488969). The note with it: HEK293 rat mGluR8, GIRK (G protein-gated inwardly rectifying potassium channel) thallium flux, FluoZin2; at 10 µM; stronger effect = higher value; submaximal glutamate (EC20) added with thallium.
Sequence of UniProt P70579 (P70579 whole entry, looked up): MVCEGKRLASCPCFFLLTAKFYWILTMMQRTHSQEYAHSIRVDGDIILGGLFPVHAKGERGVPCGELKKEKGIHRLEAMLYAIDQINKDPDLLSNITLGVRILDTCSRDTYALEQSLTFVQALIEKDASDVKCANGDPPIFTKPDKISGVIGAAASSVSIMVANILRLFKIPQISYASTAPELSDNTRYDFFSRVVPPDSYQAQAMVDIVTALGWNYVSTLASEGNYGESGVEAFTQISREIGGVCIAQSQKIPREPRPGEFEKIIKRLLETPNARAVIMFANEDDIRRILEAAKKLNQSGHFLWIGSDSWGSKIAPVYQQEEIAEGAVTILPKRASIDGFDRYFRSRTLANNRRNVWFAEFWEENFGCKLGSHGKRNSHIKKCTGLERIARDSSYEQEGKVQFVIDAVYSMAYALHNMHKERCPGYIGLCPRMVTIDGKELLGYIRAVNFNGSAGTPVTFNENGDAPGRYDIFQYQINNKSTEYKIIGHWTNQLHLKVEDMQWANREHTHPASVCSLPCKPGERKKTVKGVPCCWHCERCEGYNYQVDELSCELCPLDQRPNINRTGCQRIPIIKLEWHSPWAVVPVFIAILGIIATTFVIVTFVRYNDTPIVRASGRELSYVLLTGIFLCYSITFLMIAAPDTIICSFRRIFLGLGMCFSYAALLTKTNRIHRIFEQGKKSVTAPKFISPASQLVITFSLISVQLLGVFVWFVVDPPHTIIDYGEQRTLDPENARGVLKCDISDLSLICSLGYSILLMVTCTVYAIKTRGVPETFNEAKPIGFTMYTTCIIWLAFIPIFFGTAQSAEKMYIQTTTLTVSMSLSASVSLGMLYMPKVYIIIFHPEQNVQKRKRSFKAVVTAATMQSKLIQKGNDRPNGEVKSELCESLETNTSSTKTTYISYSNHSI
Consider `CCCn1c(C)cc(/C=C(\C#N)C(=O)O)c1C`, for which the z-score is -0.201.
With `Cc1ccc(-c2cn3cc([N+](=O)[O-])ccc3n2)cc1`, the z-score is -0.329.
Take `CC1(C)N=C(N)N=C(N)N1c1cccc(C(=O)O)c1`: the z-score is -0.141.
In turn, `CCCOC(=O)C1=C(C)NC2=C(C(=O)C(C(=O)OC)C(C)C2)C1c1ccc(N(CC)CC)cc1` (stereo not given) displayed a z-score of 0.971.
In the case of `CCOc1ccc(C(=O)OCCN(CC)CC)cc1`, the z-score was 0.374.
The molecule `O=C1CN(C(=O)COC(=O)c2cccc(OCc3ccccc3)c2)c2ccccc2N1` displayed a z-score of 0.176.
`COC(=O)c1cc(C(=O)OC)cc(S(=O)(=O)Nc2ccc(Cl)c(N)c2)c1` gave a z-score of 0.237.
On to `CC1CCCN(Cc2cccc(Oc3ccccc3)c2)C1` (stereo not given), for which the z-score is active: 6.29.
For the molecule `CCOc1ccc(CCN2C(=O)C3C4C=CC(C4)C3C2=O)cc1OCC` (stereo not given), the z-score was -0.444.
The value for `O=C(c1ccc(S(=O)(=O)N2CCOCC2)cc1)N(Cc1ccco1)Cc1cccs1` was 0.686; that for `CN(C)c1ccc(C2SCCN2C(=O)c2ccc([N+](=O)[O-])cc2)cc1` (stereo not given) was 0.113.
The value for `CCCCOC(=O)C1Cc2ccccc2C(=O)O1` (stereo not given) was -0.249; that for `COc1ccccc1NC(=O)N1CCCC(c2nc3c(nnn3Cc3ccc(C)cc3)c(=O)[nH]2)C1` (stereo not given) was -0.291; that for `CC1=C(C(=O)OC(C)C)C(c2cccc(F)c2)n2ncnc2N1` (stereo not given) was -1.89.
Molecule `CCOC(=O)c1c(NC(=O)/C=C/c2ccc(C)o2)sc(C)c1C` displayed a z-score of -0.165.
The value for `Cn1cc(C(=O)c2ccc(Cl)cc2)cc1-c1nc2ccccc2n1C` was 0.0685; that for `COc1ccccc1OCc1ccc(C(=O)N2CCN(C)CC2)o1` was -0.219.
Take `COc1cccc(CNC(=O)C2(C)Oc3ccccc3NC2=O)c1` (stereo not given): the z-score was -0.3.
The value for `NC(=O)c1cc(-c2ccccc2)nc(Oc2ccccc2)n1` was -0.386.
`Cn1c(=O)[nH]c(=O)c2c1nc(NC1CCCCC1)n2Cc1ccccc1` returned a z-score of 0.331.
The value for `Cc1ccc(-c2csc3ncnc(Oc4cccc5ccc(C)nc45)c23)cc1` was -0.213; that for `CN(C)CCSc1nc(-c2ccccc2)nc2c1CCC2` was -0.0489; that for `CCN(CC)CCOC(=O)C1c2ccccc2Oc2ccccc21` was -0.0952.
For `Cc1ccc(C(=O)NCCN2CCOCC2)cc1Cl` the value was -0.395; for `CC(C)Sc1nnc2n(CCc3ccccc3)c(=O)c3c4c(sc3n12)COC(C)(C)C4`, -0.427; for `COc1ccc(C(=O)O/N=C/c2ccc(S(=O)c3ccc(Cl)cc3)nc2)cc1` (stereo not given), -0.37.
For `O=S(=O)(c1ccccc1)N1CCC(O)(CSc2ccc(Cl)cc2)CC1` the value was -0.106.
The molecule `COC(=O)c1ccccc1NC(=O)CN(c1cc(OC)ccc1OC)S(C)(=O)=O` showed a z-score of 0.00471.
`CCn1c(SCC(=O)Nc2cc3oc4ccccc4c3cc2OC)nnc1-c1cccs1` yielded a z-score of -0.181.
The value for `CCOc1ccc(S(=O)(=O)NCCC(=O)NCc2ccco2)cc1` was -0.667; that for `Cc1ccc(SCc2[nH]nc3c2C2(CCSCC2)C(C#N)=C(N)O3)cc1` was -0.136; that for `Cc1nnc(N(Cc2ccccc2)C(=O)c2cnccn2)s1` was 0.0216.
`Cc1cc(=O)n(CCCO)c(O)c1C#N` gave a z-score of -0.271.
Molecule `CCCC[n+]1c(-c2ccc(Cl)cc2Cl)csc1Nc1ccccc1` yielded a z-score of 0.203.
For `CC1=C(C(=O)OCC2CCCO2)C(c2ccncc2)C2=C(CC(C)(C)CC2=O)N1` (stereo not given) the value was 0.671.
The value for `Cc1ccc(NC(=O)c2ccccc2)cc1` was 0.0142.
In turn, `CCOC(=O)CC(NC(=O)Cc1ccc(F)cc1)c1ccccc1Cl` (stereo not given) showed a z-score of -0.193.
Turning to `CCCCCCC1NC(C(=O)O)CS1` (stereo not given), the z-score was -0.607.
The value for `CCCCN(Cc1ccccc1)C(=O)C1CCCN(S(=O)(=O)c2cnc[nH]2)C1` (stereo not given) was -0.245.
`O=C(CSc1ncnc2sc3c(c12)CCCC3)N1CCC(c2noc3ccc(F)cc23)CC1` yielded a z-score of 0.658.
Turning to `CCCCc1ccc(-c2csc(/C(C#N)=C\c3ccc(C)o3)n2)cc1`, the z-score was -0.34.
For the molecule `CN1CCN(c2ccccc2NC(=O)c2ccc(Br)o2)CC1`, the z-score was 0.236.
Regarding `COCCCNC(=O)CCc1nc(-c2ccccc2Cl)no1`, the z-score is 0.26.
In turn, `Cn1nnnc1SCC(=O)Nc1cc(C(=O)O)cc(C(=O)O)c1` showed a z-score of -0.359.
The value for `O=C(O)CN1C(=O)SC(Nc2ccc(Cl)cc2)C1=O` (stereo not given) was -0.104.
The value for `O=C(COc1ccccc1)NCc1cccs1` was -0.279; that for `C/C(=N\n1nnnc1Nc1ccccc1)c1ccc(N)cc1` was -0.254; that for `O=C(CN(Cc1ccccc1)S(=O)(=O)c1ccc2c(c1)OCCO2)N/N=C/c1cccc(Br)c1` was 0.0191.
For `O=[N+]([O-])c1cc(S(=O)(=O)Nc2ccccc2)ccc1-n1nnc2ccccc21` the value was -1.02.
Turning to `O=C(Cc1ccc(Cl)cc1)Nc1ccc(NC(=O)c2ccccc2)cc1`, the z-score is -0.308.
Take `CC1(C)CC(=O)c2cc(OCC(=O)N3CCCCCC3)ccc2O1`: the z-score is -0.462.
For `CCOC(=O)N1CCN(C(=O)/C(=C/c2ccc(OC)cc2)NC(=O)c2ccccc2)CC1` the value was -0.264.
`Cc1ccc(-c2nnc(SCC(=O)NNC(=O)COc3ccccc3C)n2C)cc1` displayed a z-score of -0.319.
For the molecule `CN(C)c1cccc(NC(=O)Cc2ccc(F)cc2)c1`, the z-score was 0.139.
`O=c1[nH]c2cccnc2n1Cc1ccccc1` showed a z-score of -0.166.
The value for `Cc1ccc(C)c(NC(=O)C2Cc3ccccc3CN2C(=O)OCc2ccccc2)c1` (stereo not given) was -0.537.
`CCOC(=O)C(Cc1ccc(NC(=O)/C(=C/c2ccccc2)NC(=O)c2ccccc2)cc1)N1C(=O)c2ccccc2C1=O` (stereo not given) had a z-score of -0.253.
The value for `O=C(Nc1nc(-c2ccccc2)cs1)C1CCCCN1S(=O)(=O)c1ccc(Cl)cc1` (stereo not given) was -0.237.
Turning to `CCSc1nc2nn(-c3ccccc3)c(=O)c-2c2n1CCCCC2`, the z-score is -0.536.
For `CCn1c2ccccc2c2cc(NC(=O)CSc3nnc(-c4ccccc4)o3)ccc21` the value was 0.0695.
Molecule `O=C(CCSc1nnc(-c2ccncc2)o1)Nc1ccccc1` yielded a z-score of -0.072.
The value for `CCn1c(=O)c(C(=O)NCc2ccccn2)c(O)c2ccccc21` was -0.0558; that for `CCC(C)(C(=O)NC1CCCCC1)N(C)C(=O)c1ccc2c(c1)OCO2` (stereo not given) was -0.364.
As for `COc1ccc2[nH]c(C(=O)O)c(NS(=O)(=O)c3ccc(OC)c(OC)c3)c2c1`, the z-score is -0.117.
In turn, `C/C(=N\NC(=O)CN(c1ccccc1Br)S(C)(=O)=O)c1ccc2c(c1)OCCO2` returned a z-score of 0.505.
In the case of `CCCCOc1ccc2c(C)cc(=O)oc2c1OCCCC`, the z-score is -0.635.
The value for `OC1CCCN(C(=S)Nc2ccc(SC(F)F)cc2)C1` (stereo not given) was -0.328.
For `CCOc1ccc(C(=O)COc2ccc(NC(C)=O)cc2)cc1`, the z-score was -0.485.
The molecule `O=C(NCc1cccnc1)C1CCN(S(=O)(=O)c2cccnc2)CC1` gave a z-score of -0.219.
For `CCNS(=O)(=O)c1ccc(NC(=O)c2ccccc2OCC)cc1` the value was -0.0887; for `CN(c1ccc(OCC(=O)NC2CCCC2)cc1)S(=O)(=O)c1cccs1`, -0.0565.
For `CCOc1nc(-c2ccccc2)ccc1-c1noc(-c2cccs2)n1` the value was -0.148; for `c1ccc(-n2nnnc2CN2CCOCC2)cc1`, 0.041.
For the molecule `Cc1ccccc1CN1CCN(CC2CC3C=CC2C3)CC1` (stereo not given), the z-score is -0.0221.
For `O=C(Nc1ccccc1)OCc1cc(-c2ccc(Cl)cc2)on1` the value was -0.494; for `COc1ccc(-c2nc(SCc3ccccc3)n(C(=O)c3ccco3)n2)cc1`, -0.152.
The value for `O=C(NCC(c1cccnc1)N1CCN(c2ccccc2F)CC1)c1ccco1` (stereo not given) was 0.32.
As to `COc1ccccc1C1(CCNS(=O)(=O)c2ccc(C)cc2)CCOC(C(C)C)C1` (stereo not given), the z-score was -0.293.
The value for `Cc1ccc(C)c(NS(=O)(=O)c2cc(C(=O)N3CCc4ccccc4C3)ccc2Cl)c1` was -0.21.
`COc1ccc(C(=S)N2CCOCC2)cc1OS(=O)(=O)c1ccccc1[N+](=O)[O-]` displayed a z-score of -0.118.
The value for `CCOc1ccc2[nH]c(=O)c(CN(Cc3ccccc3)C(=O)N3CCCC3)cc2c1` was 0.0044; that for `O=C1NC(c2ccccc2)=C(c2nc3ccccc3s2)C(c2ccc(F)cc2)N1` (stereo not given) was -0.195; that for `O=C(NC1CCCCC1)N1CCN(c2ccccc2)CC1` was 0.0334.
`Cc1ccc(S(=O)(=O)Cc2ccc(C(=O)NCCCN3CCN(C)CC3)o2)cc1` returned a z-score of 0.0989.
For the molecule `CC(C)C(=O)Nc1cccc(-c2nc3ccccc3o2)c1`, the z-score is -0.391.
Regarding `CS(=O)(=O)N(Cc1nc2sc3c(c2c(=O)[nH]1)CCCC3)C1CCCCC1`, the z-score stood at 1.06.
For `CCc1cc(=O)n2[nH]c(C)c(-c3ccccc3OC)c2n1` the value was 0.4; for `Cc1ccc(Cn2c(SCC(C)C)nc3c2c(=O)[nH]c(=O)n3C)cc1`, -0.876.
In turn, `Cc1nn(C)c(C)c1/C=C1/SC(=S)NC1=O` registered a z-score of 0.492.
For `Cc1nc(/N=C(\N)NC(=O)c2ccccc2)nc2ccccc12` the value was 2.8; for `CC(O)CNc1nc2c(c(=O)n(C)c(=O)n2C)n1Cc1cccc(Br)c1` (stereo not given), -0.338.
`Cc1cccc(NC(=O)/C(C#N)=C/c2cn(CC(=O)NCc3ccco3)c3ccccc23)c1`: the z-score was -0.187.
Molecule `Cc1onc(-c2ccccc2)c1C(=O)Nc1ccc(S(=O)(=O)N2CCCCC2)cc1` showed a z-score of -0.301.
Turning to `CCCN(CCC)CCNC(=O)C1CCN(Cc2nc(-c3ccc(Cl)cc3)oc2C)CC1`, the z-score came to 0.348.
Molecule `Cc1ccc(S(=O)(=O)NCC(=O)N/N=C/c2ccc(Cl)cc2Cl)cc1` displayed a z-score of -0.272.
For `N#Cc1ccc(-c2csc(NC(=O)C3CC3)n2)cc1` the value was -0.464; for `CCCCC(=O)Nc1cccc(-c2cn3ccsc3n2)c1`, -0.713.
The value for `CC1CCN(S(=O)(=O)c2cn(CC(=O)N3CCN(C)CC3)c(=O)c3ccccc23)CC1` was 0.0164; that for `Cc1cccc(NC(=S)N(CCN(C)C)Cc2cc3cc(C)cc(C)c3[nH]c2=O)c1` was 0.0908; that for `Cc1nnc(SCCC(=O)Nc2ccc(F)cc2)s1` was 0.473.
The value for `Cc1csc2nc(CNS(=O)(=O)c3cccnc3)cn12` was -0.311.
Take `O=C(CNC(=O)c1ccc(Cl)cc1)OCc1nc2ccccc2s1`: the z-score was -0.538.
As to `CCOc1ccc(NCC(=O)Nc2ccc(Cl)cc2C)cc1`, the z-score was -0.235.
`COC(=O)c1ccccc1NC(=O)c1ccc(NS(C)(=O)=O)cc1` displayed a z-score of -0.0185.
`O=C(Oc1ccccc1C(=O)N1CCOCC1)c1cccc(Br)c1` displayed a z-score of -1.11.
The molecule `COC(=O)CCS(=O)(=O)c1nc(-c2ccccc2)cc(C(F)(F)F)n1` registered a z-score of -0.75.
For `CN(c1ccccc1C(=O)O)S(=O)(=O)c1ccc2c3c(cccc13)C(=O)N2` the value was 0.571; for `COc1ccc(/C=C/C(=O)NNc2c(F)c(F)cc(F)c2F)cc1OC`, 0.159.
As for `Cc1ccc2oc(C(=O)Nc3nnc(C)s3)c(C)c2c1`, the z-score is -0.9.
As for `CC(=O)Nc1ccc(S(=O)(=O)N2CCSC2C(=O)O)cc1` (stereo not given), the z-score is 0.392.
